{"source": "the RNAGym collection of RNA variant scans (doi:10.7554/elife.90254)", "parents": {"B1": {"name": "LINE1-mini (parent)", "chain": "GGCAGAGCUCAACACAGCGUGGCAAAGUGGCUGUGGCUAGACUGCC"}}, "note": "Read counts are not given, so values of variants with three or more changes are uncertain.", "data": [{"variants_of": "B1", "test": "self-cleavage, relative activity (ratio to wild type); higher = more cleavage; in vitro, sequencing; the parent is a self-cleaving ribozyme", "values": [{"variant": "CGCAGAGCUCAACACAGCGUGGCAAAGUGGCUGUGCCUGGACAACC", "note": "[G1C G36C A39G U43A G44A]", "self-cleavage": 0.01}, {"variant": "CGCAGAGCACAGCACAGCGCGGCAAAGUGGCUGUGGCUAGACUGCC", "note": "[G1C U9A A12G U20C]", "self-cleavage": 0}, {"variant": "CGCAGAGCACAAUACAGCGUGGCAAAGUGGCUGUGGAUAGACUGCC", "note": "[G1C U9A C13U C37A]", "self-cleavage": 0}, {"variant": "CGCAGAGCACAACACAGCGUGGCAAAGUGGCUGUGGCUAGACUGCA", "note": "[G1C U9A C46A]", "self-cleavage": 0.02}, {"variant": "CGCAGAGCACAACACAGCGUGGCAAAGUGGCUGUGGCUACACUGCC", "note": "[G1C U9A G40C]", "self-cleavage": 0.01}, {"variant": "CGCAGAGCACAACACAGCGCGGCAAAGUGGCUGUGGCUAGACUGCC", "note": "[G1C U9A U20C]", "self-cleavage": 0.01}, {"variant": "CGCAGAGCCCAACAAAGCCUGGCAAUGUGGCUGUGGCUAAGCUGCC", "note": "[G1C U9C C15A G19C A26U G40A A41G]", "self-cleavage": 0}, {"variant": "CGCAGAGCCCAACACAGCGUGGCAAAGUGGCUGUGGCUAAACUGCC", "note": "[G1C U9C G40A]", "self-cleavage": 0.01}, {"variant": "CGCAGAGCUCAACACAGCGCGGCGAAGUAGCUAUGGCUAGACUGCC", "note": "[G1C U20C A24G G29A G33A]", "self-cleavage": 0.02}, {"variant": "CGCAGAGCUCAACACAGCGCGACAAAGUGGCUAUGGCUAGACUGCC", "note": "[G1C U20C G22A G33A]", "self-cleavage": 0.02}, {"variant": "CGCAGAGCUCAACACAGCGCGGCAAAGUGCCUAUGGCUAGACUGCC", "note": "[G1C U20C G30C G33A]", "self-cleavage": 0.01}, {"variant": "CGCAGAGCUCAACACAGCGUGGCAAAGAGGGUGUGGCUAGACUGCC", "note": "[G1C U28A C31G]", "self-cleavage": 0.04}, {"variant": "CGCAGAGCUCAACACAGCGUGGCAAAGCGGCUGUGGCUAGAAUGCC", "note": "[G1C U28C C42A]", "self-cleavage": 0.03}, {"variant": "CGCAGAGCUCAACACAGCGUGGCAAAGGGGCUGUGGCUAUACUGCC", "note": "[G1C U28G G40U]", "self-cleavage": 0}, {"variant": "CGCAGAGCUCAACACAGCGUGGCAAAGUGGCCGUGGCAAGACUUCU", "note": "[G1C U32C U38A G44U C46U]", "self-cleavage": 0.01}, {"variant": "CGCAGAGCUCAACACAGCGUGGCAAAGUGGCUGCGGCUACACAGCC", "note": "[G1C U34C G40C U43A]", "self-cleavage": 0.04}, {"variant": "CGCAGAGCUCAACACAGCGUGGCAAAGUGGCUGUGGCUAGACGCCC", "note": "[G1C U43G G44C]", "self-cleavage": 0.01}, {"variant": "UGCCGGGCUCAACACAACGUGGCAAAGUGGCUGUGGCUAGACUGCC", "note": "[G1U A4C A6G G17A]", "self-cleavage": 0.08}, {"variant": "UGCCGAGCUCAACACAGCGUGGCAAAGUGGCUGUGGCUUGACUGCC", "note": "[G1U A4C A39U]", "self-cleavage": 0.02}, {"variant": "UGCCGAGCUCAACAUAGUGUGGCAAAGUGGCUGUGGUUAGACUGCC", "note": "[G1U A4C C15U C18U C37U]", "self-cleavage": 0.02}, {"variant": "UGCCGAACUCAACACAGCGUGGAAAAGUGUCUGUGGUUAGACUGCC", "note": "[G1U A4C G7A C23A G30U C37U]", "self-cleavage": 0.07}, {"variant": "UGCCGAGCUCAACACAGCGUGGCAAAGUGGCUGUAGAUAGACUGCC", "note": "[G1U A4C G35A C37A]", "self-cleavage": 0.02}, {"variant": "UGCCGAGCUCAACACAGCGAGGCAAAGUGGCUGUGGCUAGACUGCC", "note": "[G1U A4C U20A]", "self-cleavage": 0.02}, {"variant": "UGCCGAGCUCAACACAGCGAGGGAAAGUGACCGUGGCUAGACUGCC", "note": "[G1U A4C U20A C23G G30A U32C]", "self-cleavage": 0.1}, {"variant": "UGCGGAGCUUAAGACAUCAUGGCAAAGUGGCUGUGGCUAGACAGCC", "note": "[G1U A4G C10U C13G G17U G19A U43A]", "self-cleavage": 0.02}, {"variant": "UGCGGAGCUCAACAUAGCGUGGCAUAGUGGCUGUGGCUAGACUGCC", "note": "[G1U A4G C15U A25U]", "self-cleavage": 0.04}, {"variant": "UGCGGAGCUCAACACAGCGUGGCAAAGUGGAUGUGGCUAGACUGCA", "note": "[G1U A4G C31A C46A]", "self-cleavage": 0.1}, {"variant": "UGCGAAGCUGAGCACAGCGUUGCAAAGGGGCUGUGGCUAGACUUCC", "note": "[G1U A4G G5A C10G A12G G21U U28G G44U]", "self-cleavage": 0.01}, {"variant": "UGCGGAUCUCAACACAGCUUUGGAAUGUGGCUCUGGCUAAACUGCC", "note": "[G1U A4G G7U G19U G21U C23G A26U G33C G40A]", "self-cleavage": 0.06}, {"variant": "UGCGGAGCUCAACACAGCGUGGCAAAGUUGCUGUGGCUAGACUGCC", "note": "[G1U A4G G29U]", "self-cleavage": 0.78}, {"variant": "UGCGGAGCUCAACACAGCGUGGCAAAGUGGCUGUGGCUAGACUCGG", "note": "[G1U A4G G44C C45G C46G]", "self-cleavage": 0.14}, {"variant": "UGCUGAGCUCACCACAGCGUGGCAAAGUGGCUGUGGCUAGACUGCC", "note": "[G1U A4U A12C]", "self-cleavage": 0.03}, {"variant": "UGCUGAGUUCAACACAGCGUGGCAAAGUGGCUGUGGCUAGACUGCC", "note": "[G1U A4U C8U]", "self-cleavage": 0.38}, {"variant": "UGCUGAGCUCAACACAGCGUGGCAAAGUGGGUGUGGCUAGACUGCC", "note": "[G1U A4U C31G]", "self-cleavage": 0.05}, {"variant": "UGCUUAGCUCAACACAGCGUGGCAAGGUGGCUGUGGCUAGACUGCC", "note": "[G1U A4U G5U A26G]", "self-cleavage": 0.02}, {"variant": "UGCUGAUCUCAACACAGCGUGGCAAAGUGGCUGUGGCUAGACUGCC", "note": "[G1U A4U G7U]", "self-cleavage": 0.29}, {"variant": "UGCUGAGCUCAACACAGCGUGGCAAAGUGCCUGUGGCUAGACUGCC", "note": "[G1U A4U G30C]", "self-cleavage": 0.01}, {"variant": "UGCUGAGCCCAACACAGCGUGGCAAAGUGGCUGUGGCUAGACUGCC", "note": "[G1U A4U U9C]", "self-cleavage": 0.07}, {"variant": "UGCUGAGCUCAACACAGCGUGGCAAAGUGGCCGUGGCUAGACUGGC", "note": "[G1U A4U U32C C45G]", "self-cleavage": 0.01}, {"variant": "UGCAGCGCUCAACACAGCGUGGUUAAGUGGCUGCGGCGAGACUGCC", "note": "[G1U A6C C23U A24U U34C U38G]", "self-cleavage": 0}, {"variant": "UGCAGCGCUCAACACAACGUGUCAAAGUGGCUGUGUCUAGACUGCA", "note": "[G1U A6C G17A G22U G36U C46A]", "self-cleavage": 0.02}, {"variant": "UGCAGCGCUCAACACAGCGUGGCAAAGUAGCUGUGGCUAGACUGCC", "note": "[G1U A6C G29A]", "self-cleavage": 0.1}, {"variant": "UGCAGCGCGCAACACAGCGUGGCAAAGUGGCUGUGGCUAGACUGCC", "note": "[G1U A6C U9G]", "self-cleavage": 0.01}, {"variant": "UGCAGCGCUCAACACAGCGUGGCAAAGGGGCUGUGGCUAGACUGCC", "note": "[G1U A6C U28G]", "self-cleavage": 0.48}, {"variant": "UGCAGGGCUCCACACAGCGUGGCAAAGUGGCUGUAGCUAGACUGCC", "note": "[G1U A6G A11C G35A]", "self-cleavage": 0.02}, {"variant": "UGCAGGGCUCGACACGGCGUGGCAAAGUCGCUGUGGCUAGACUGCC", "note": "[G1U A6G A11G A16G G29C]", "self-cleavage": 0.01}, {"variant": "UGCAGGGUCCAACACAGCGUGGCAAAGUGGCUGUGGCUAGACUGCC", "note": "[G1U A6G C8U U9C]", "self-cleavage": 0}, {"variant": "UGCAGGGCUCAACACAGCGUGGGUAAGUGGCUGUGGCUAGACUGCC", "note": "[G1U A6G C23G A24U]", "self-cleavage": 0.04}, {"variant": "UGCAGGGCUCAACACAUCCUGGCAAAGUGGCUGAGGCUAGACUGCG", "note": "[G1U A6G G17U G19C U34A C46G]", "self-cleavage": 0.02}, {"variant": "UGCAGUGGUCAACACCGCGUGGUAAAGGGGCUGGGGCUAGACUGCC", "note": "[G1U A6U C8G A16C C23U U28G U34G]", "self-cleavage": 0.04}, {"variant": "UGCAGUGCUCAACACAGCGUGGCAAAGUGGCUGUGGCUAGACUGGU", "note": "[G1U A6U C45G C46U]", "self-cleavage": 0.18}, {"variant": "UGCAGUGCUCAACACAGCGUGGCAAAGUGUCUGUGGCGACACUGCC", "note": "[G1U A6U G30U U38G G40C]", "self-cleavage": 0.02}, {"variant": "UGCAGUGCUCAACACAGCGUGGCAAAGUGGCAGUGGCUAGACUGCC", "note": "[G1U A6U U32A]", "self-cleavage": 0.04}, {"variant": "UGCAGAGCUCCACUCAGCGUGGCAAAGUAGCUGUGGAUAGACUGCC", "note": "[G1U A11C A14U G29A C37A]", "self-cleavage": 0}, {"variant": "UGCAGAGCUCCACUCAGCGGGGCAAAGUGGCUGGGGCUAUACAGCC", "note": "[G1U A11C A14U U20G U34G G40U U43A]", "self-cleavage": 0}, {"variant": "UGCAGAGCUCCACACAGCGUGGCAAAGUGGCUGUGGCUGGGCUGCC", "note": "[G1U A11C A39G A41G]", "self-cleavage": 0.01}]}]}
